Experimental findings from PubChem BioAssay AID1159614 (National Center for Advancing Translational Sciences (NCATS), 2016) are described below.

The structures appear in SMILES notation. Out of some 45,000 compounds screened, about 65 (0.1%) were called active. The call rests on the fitted dose curve; in most records, active means well fitted activation curve with a large enough effect; inconclusive means small, poorly fitted or top-dose-only effect; inactive means no such curve, though single readings can be large or run the other way. The list shows a part of the results.

The target of the test is Galactocerebrosidase (Homo sapiens) (UniProt P54803). Description: A Novel Cell-Based Assay to Identify Small Molecules for B -Galactocerebrosidase. Further: 0% is about no effect; nearly all actives have a fitted effect of over 65% in size. Particulars: 145M-Twi-hGALC-G270D cells (Twitcher mouse brain line with human GALC G270D), HMU-beta-Gal fluorescence, 48 h; series mostly up to 57.5 µM; activation: at the top concentration. The method in brief: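 Brain-derived Twitcher mouse 145M-Twi cells stably expressing human GALC-G270D or wild-type GALC, treated live, then residual GALC activity read by fluorescence of HMU-b-Gal substrate (0.1 mM final) in citrate-phosphate buffer pH 5.2 with sodium taurocholate. Signal increase indicates enhancement.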
Sequence of UniProt P54803 (P54803 whole entry, looked up): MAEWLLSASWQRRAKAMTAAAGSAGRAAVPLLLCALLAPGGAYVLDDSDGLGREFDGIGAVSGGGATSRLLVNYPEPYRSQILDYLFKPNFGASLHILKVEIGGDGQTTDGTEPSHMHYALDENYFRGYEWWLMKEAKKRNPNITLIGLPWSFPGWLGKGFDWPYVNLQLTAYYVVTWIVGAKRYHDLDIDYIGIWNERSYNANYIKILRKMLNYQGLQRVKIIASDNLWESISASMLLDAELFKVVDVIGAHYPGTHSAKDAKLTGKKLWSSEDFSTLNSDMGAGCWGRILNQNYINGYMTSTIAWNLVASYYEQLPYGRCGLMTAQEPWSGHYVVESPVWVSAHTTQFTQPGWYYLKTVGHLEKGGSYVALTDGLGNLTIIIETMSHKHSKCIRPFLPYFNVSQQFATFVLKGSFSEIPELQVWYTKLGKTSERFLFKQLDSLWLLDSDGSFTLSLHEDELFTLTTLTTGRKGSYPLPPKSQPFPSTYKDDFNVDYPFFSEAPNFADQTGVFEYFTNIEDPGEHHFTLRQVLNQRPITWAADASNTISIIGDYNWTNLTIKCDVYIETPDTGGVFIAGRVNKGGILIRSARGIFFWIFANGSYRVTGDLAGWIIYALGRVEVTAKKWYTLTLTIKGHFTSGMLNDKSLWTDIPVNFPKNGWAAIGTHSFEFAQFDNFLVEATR
As for `CC(C)(C)NC(=O)CSc1nc(-c2ccc(F)cc2)cc(C(F)(F)F)n1`, the “activation” value is inactive: -9.22%.
Then `COc1ccc(S(=O)(=O)NCC(c2ccco2)N2CCN(c3ccc(F)cc3)CC2)cc1` (stereo not given), with inactive: -0.682%.
As for `O=C(NCc1ccccc1)c1ccc2c(c1)N(Cc1ccccc1)C(=O)c1ccccc1S2(=O)=O`, the “activation” value was inactive: -5.4%.
The same measure for `CC(C)c1cnc2c(c1SCC(=O)c1ccccc1)c(=O)n(C)c(=O)n2C`: inactive: 1.17%; for `COC(=O)c1ccc(NC(=O)N2CCN(c3nnc(C)c4c(C)n(-c5ccccc5)nc34)CC2)cc1`: inactive: -11.7%.
Then `COc1ccc(S(=O)(=O)N2CCN(c3ccccc3)CC2)cc1-c1noc(C)n1`, with inactive: -16%.
Then `O=C(Cn1c(=O)c(C(F)(F)F)nc2ccccc21)Nc1ccc(Br)cc1F`, with inactive: -12%; and `Cc1ccccc1Cn1cc(CCC(=O)NCc2cccc(Br)c2)c2ccccc21`, with inactive: -38.3%.
Consider `Cn1nc(-c2ccccc2F)c2cc(C(=O)Nc3cc(F)ccc3F)sc21`, for which the “activation” value was inactive: -6.59%.
Turning to `O=C(c1cnc2c(c1)COc1ccccc1-2)c1ccccc1O`, the “activation” value is inactive: -15.7%.
The same measure for `Cc1cc(C)c(S(=O)(=O)Nc2cc(Cl)c3oc4c(c3c2)C(=O)CCC4)cc1C`: inactive: -0.935%.
Turning to `Cn1c(=O)n(C)c2cc(CNCc3ccccc3)ccc21`, the “activation” value was inactive: -13.7%.
The same measure for `Nc1ccc(C(=O)Nc2ccccc2N)cc1`: inactive: -14.5%.
The same measure for `CCOC(=O)Cn1c(=O)n(C2CCCCC2)c2nc(-c3ccc(OC)cc3)nc(C(N)=O)c21`: inactive: -7.6%; for `Cc1cc(C)cc(NC(c2nnc(-c3cccc(F)c3)o2)c2ccc(F)cc2Cl)c1` (stereo not given): inactive: -17.7%.
The same measure for `COc1ccc(Cc2nc3ccc(C(=O)NCCc4ccc(OC)c(OC)c4)cc3o2)cc1`: inactive: -0.789%; for `Cc1cccc2c(=O)cc(CSCC(=O)Nc3ccc(Cl)cc3)[nH]c12`: inactive: -9.02%; for `CCOc1ccc(C(=O)Nc2ccc(-c3nnc4n3CCCCC4)cc2)cc1OCC`: inactive: -4.86%.
On to `Cc1ccc(CNC(=O)C(=O)NCC(c2ccco2)S(=O)(=O)c2ccc(C)cc2)cc1` (stereo not given), for which the “activation” value was inactive: 6.56%.
As to `Cc1ccc(Cn2c(=O)n(Cc3ccccc3)c(=O)c3c(C)c(C)sc32)cc1`, the “activation” value was inactive: -11.6%.
In the case of `Cc1ccc(CNS(=O)(=O)c2cc(Br)cc3c2N(C(=O)C2CC2)CC3)cc1`, the “activation” value was inactive: -5.44%.
Then `Cc1ccc2oc(-c3cccc(NC(=O)c4ccc(N5CCC(C)CC5)c([N+](=O)[O-])c4)c3)nc2c1`, with inactive: -23.4%; and `COc1ccc(Nc2nc(Nc3ccc(OC)cc3OC)nc(N3CCOCC3)n2)c(OC)c1`, with inactive: -19.1%; and `CC(C)(C)C(=O)Nc1nc2nc(-c3ccccc3)cc(=O)n2[nH]1`, with inactive: -26.6%.
Turning to `CCCCNC(=O)CN1C(=O)c2c(c3ccccc3n2C)C1c1ccc(OC)cc1` (stereo not given), the “activation” value is inactive: -7.07%.
Then `CC(=O)c1ccc(NC(=O)CSc2c(C(C)C)cnc3c2c(=O)n(C)c(=O)n3C)cc1`, with inactive: -2.44%.
The same measure for `C[C@]12C=CC(=O)C=C1CC[C@@H]1[C@@H]2C(=O)C[C@@]2(C)[C@H]1CC[C@]2(O)C(=O)CO`: inactive: -8.54%; for `Cc1ccc(S(=O)(=O)N2CCCc3cc(NS(=O)(=O)c4ccc(C)c(C)c4)ccc32)cc1`: inactive: -6.81%.
Turning to `Cc1oc(-c2ccc(Cl)cc2)nc1CN1CCCC(C(=O)NCCc2ccccc2)C1` (stereo not given), the “activation” value was inactive: -11%.
The same measure for `COc1ccc(C2CC(=O)c3cc(-c4nc(-c5cccc([N+](=O)[O-])c5)cs4)c(=O)n(-c4ccc(F)cc4)c3C2)cc1` (stereo not given): inactive: -11.1%; for `C=CCn1c(=O)n([C@@H]2O[C@H](CO)[C@@H](O)[C@H]2O)c2nc(N)[nH]c(=O)c21`: inactive: -6.82%; for `O=C(CS(=O)(=O)c1cccc2nsnc12)N1CCN(c2ccccc2)CC1`: inactive: -14.6%.
Then `CCOc1ccc(CNCCSc2nnnn2C)cc1OC`, with inactive: 1.43%; and `O=C(Cn1c(=O)n(Cc2ccc(C(=O)NCc3ccc4c(c3)OCO4)cc2)c(=O)c2ccccc21)Nc1ccc(F)cc1F`, with inactive: -5.98%; and `Cc1c(-c2nnc(SCC(=O)Nc3ccc(Br)cc3)o2)nnn1-c1ccc(F)cc1`, with inactive: -14.4%.
Then `COC(=O)c1ccn(-c2nc(-c3ccc(Cl)cc3)cc(C(F)(F)F)n2)n1`, with inactive: -15.3%; and `COC(=O)c1ccccc1NC(=O)c1cn2c3c(ccc(Cl)c3c1=O)OC(C)C2` (stereo not given), with inactive: -14.3%; and `CC(C)c1ccc(CN(Cc2ccco2)c2cnc(S(C)(=O)=O)nc2C(=O)Nc2ccccc2)cc1`, with inactive: -8.46%.
In the case of `CCCCNC(=O)C1CCN(c2nc3ccc(C)cc3[nH]2)CC1`, the “activation” value was inactive: -7.07%.
The same measure for `COc1ccc(-c2nc(C)c(CCNS(=O)(=O)c3ccc(F)cc3)s2)cc1OC`: inactive: -23.4%.
As to `CCc1ccc(Sc2cc(C(=O)NCCCN3CCC(C)CC3)c3ccccc3n2)cc1`, the “activation” value is inactive: -13%.
Then `CCOc1ccc(/C=C/c2nc(C#N)c(N3CCC(C)CC3)o2)cc1`, with inactive: -22.8%; and `COc1ccccc1CNC(=O)CCCCn1c(=O)c2ccccc2n(CC(=O)Nc2cccc(Cl)c2)c1=O`, with inactive: -8.99%; and `COC(=O)c1cc2oc3ccccc3c2n1Cc1ccccc1Cl`, with inactive: -10.2%.
Then `COc1cc(NC(=O)CCS(=O)(=O)c2ccc3c(c2)n(C)c(=O)c(=O)n3C)cc(OC)c1`, with inactive: -0.378%; and `Cc1cccc(NC(=O)N2CCN3CCCCC3C2)c1C` (stereo not given), with inactive: -3.37%; and `COc1cccc(NC(=O)Cn2c(-c3nonc3N)nc3ccccc32)c1`, with inactive: 17%.
Then `COc1ccccc1N1CCN(c2csc3ccccc3c2=O)CC1`, with inactive: -16.8%; and `Cc1cccc(C)c1Nc1c(-c2ccsc2)nc2cccc(C)n12`, with inactive: -2.21%.
In the case of `CN1CCN(C2=Nc3ccccc3Sc3ccc(Cl)cc32)CC1`, the “activation” value was inactive: -8.14%.
The same measure for `CCc1ccc(NC(=O)C2CCCN(c3nnc(C)c4c(C)n(-c5ccccc5)nc34)C2)cc1` (stereo not given): inactive: -14.4%; for `O=C(Nc1cc(Cl)ccc1Cl)c1cc(S(=O)(=O)N2CCc3ccccc3C2)ccc1F`: inactive: -7.84%.
On to `COc1ccc2oc(-c3ccc(NC(=O)c4ccc(Cl)cc4Cl)cc3)nc2c1`, for which the “activation” value is inactive: -8.23%.
Then `Cc1ccc(-n2ncc3c(N4CCN(c5ccc(F)cc5)CC4)ncnc32)cc1`, with inactive: -7.76%; and `COc1ccc(CNC(=O)C(=O)Nc2cccc(C)c2C)cc1`, with inactive: 8.22%; and `O=c1c(-c2cc(-c3ccccc3)nc3c2COc2ccccc2-3)coc2ccc(Cl)cc12`, with inactive: 1.89%.
The same measure for `CCOC(=O)CSc1nc2sc3c(c2c(=O)n1-c1ccc(OC)cc1)CC(C(C)C)OC3` (stereo not given): inactive: -19.9%; for `COc1ccccc1NC(=O)Cn1c(=O)n(CC2CCC(C(=O)NCCc3ccccc3)CC2)c(=O)c2ccccc21` (stereo not given): inactive: 0.519%.
Then `CCOc1ccc(CNC(=O)C2CCN(C(=O)N3CC(CC)Oc4ccc(C)cc43)CC2)cc1OC` (stereo not given), with inactive: -17%; and `Cc1cc(NC(=O)c2cc(-c3ccc(Cl)c(Cl)c3)on2)n(-c2ccccc2)n1`, with inactive: -7.75%.
